From the antibiotic and cytotoxicity screens of Wong et al. (2023) come the findings set out here.

Test [1] relates to HSkMC (human skeletal muscle cells). The experiment in a line: cytotoxicity call (relative viability < 0.9). Conditions: 10 µM.
Test [2] deals with HepG2. In words: cytotoxicity call (relative viability < 0.9). Conditions: 10 µM.
Test [3] deals with S. aureus RN4220. The experiment in a line: growth inhibition call (relative growth <= 0.2). Conditions: 50 µM.

Some of the results follow.

Regarding `C[C@@H]1CCCCO[C@H](CN(C)S(=O)(=O)c2ccccc2)[C@@H](C)CN([C@@H](C)CO)C(=O)c2cc(NC(=O)Nc3ccc(F)cc3)ccc2O1`, the cytotoxicity call in test [1] and in test [2] was “inactive” in each case. In addition, the growth inhibition call in test [3] is “inactive”.

With `C[C@@H]1CN([C@@H](C)CO)C(=O)Cc2cc(NC(=O)CCCCCC(=O)Nc3ccccc3N)ccc2O[C@@H]1CN(C)S(=O)(=O)c1cn(C)cn1`, the cytotoxicity call in test [1] and in test [2] was “inactive” throughout. The growth inhibition call in test [3] is “inactive”.

For the molecule `COc1ccc(S(=O)(=O)Nc2ccc3c(c2)C(=O)N([C@@H](C)CO)C[C@H](C)[C@H](CN(C)S(=O)(=O)c2cccs2)O3)cc1`, the cytotoxicity call in test [1] and in test [2] was “inactive” throughout. Further, the growth inhibition call in test [3] is “inactive”.

For the molecule `C[C@@H](Cc1c[nH]c2ccccc12)NC(=O)CN`, the cytotoxicity call in test [1] and in test [2] was “inactive” throughout. The growth inhibition call in test [3] is “inactive”.

As to `COc1ccccc1-c1cccc(-c2nc(C(=O)Nc3nccs3)cc3c2[C@@H](CCO)N(C(=O)CC2CC2)C3)c1`, the cytotoxicity call in test [1] was “inactive”. Further, in test [2], the cytotoxicity call is “active”. Moreover, in test [3], the growth inhibition call is “inactive”.

Turning to `C[C@H]1CN([C@@H](C)CO)C(=O)Cc2cc(NC(=O)Nc3ccc(C(F)(F)F)cc3)ccc2O[C@H]1CN(C)Cc1ccc(Oc2ccccc2)cc1`, the cytotoxicity call in test [1] and in test [2] was “active” each time. Also, the growth inhibition call in test [3] was “inactive”.

In the case of `O=C(CNC(=O)c1ccc(Cl)cc1)NO`, the cytotoxicity call in test [1] and in test [2] was “inactive” each time. The growth inhibition call in test [3] is “inactive”.

As for `C[C@H](CO)N1C[C@H](C)[C@@H](CN(C)C(=O)Nc2ccc(C(F)(F)F)cc2)Oc2ncc(-c3ccc(C#N)cc3)cc2C1=O`, the cytotoxicity call in test [1] and in test [2] was “inactive” throughout. The growth inhibition call in test [3] was “inactive”.

As to `C[C@H]1CN([C@@H](C)CO)C(=O)c2cc(NS(=O)(=O)c3cccs3)ccc2O[C@@H]1CN(C)C(=O)Nc1cccc2ccccc12`, the cytotoxicity call in test [1] and in test [2] was “inactive” throughout. In addition, the growth inhibition call in test [3] is “inactive”.

For `CN(C)CC(=O)N[C@@H]1CC[C@@H](CCn2cc(CN(C)C)nn2)O[C@H]1CO`, the cytotoxicity call in test [1] and in test [2] was “inactive” each time. Moreover, the growth inhibition call in test [3] was “inactive”.

With `C[C@@H]1CCCCO[C@@H](CN(C)S(=O)(=O)c2ccccc2)[C@H](C)CN([C@@H](C)CO)C(=O)c2cc(NC(=O)CCC(F)(F)F)ccc2O1`, the cytotoxicity call in test [1] and in test [2] was “inactive” each time. In addition, the growth inhibition call in test [3] was “inactive”.

For `O=C(O)C=C(CC(=O)O)C(=O)O`, the cytotoxicity call in test [1] and in test [2] was “inactive” throughout. The growth inhibition call in test [3] was “inactive”.

For the molecule `Cc1ccccc1S(=O)(=O)N1C[C@H](O)COC[C@@H]2O[C@H](CC(=O)NCCc3ccncc3)CC[C@H]21`, the cytotoxicity call in test [1] and in test [2] was “inactive” in each case. Also, the growth inhibition call in test [3] is “inactive”.

On to `C[C@H]1CN([C@@H](C)CO)C(=O)c2cc(NC(=O)Cn3cnnn3)ccc2O[C@@H]1CN(C)Cc1ccc(Oc2ccccc2)cc1`, for which the cytotoxicity call in test [1] and in test [2] was “inactive” each time. Further, the growth inhibition call in test [3] is “inactive”.

As for `C[C@H]1CN([C@@H](C)CO)C(=O)Cc2cc(NC(=O)CCN3CCOCC3)ccc2O[C@H]1CN(C)Cc1ccc2c(c1)OCO2`, the cytotoxicity call in test [1] and in test [2] was “inactive” throughout. Moreover, the growth inhibition call in test [3] is “inactive”.

In the case of `CO[C@@H]1CN(C)C(=O)c2ccc(NC(=O)C3CC3)cc2OC[C@H](C)N(C(=O)C2CCOCC2)C[C@H]1C`, the cytotoxicity call in test [1] and in test [2] was “inactive” throughout. Also, in test [3], the growth inhibition call is “inactive”.

For `COc1ccc(CN(C)C[C@H]2OCCCC[C@H](C)Oc3ccc(NS(=O)(=O)c4ccc(F)cc4)cc3C(=O)N([C@H](C)CO)C[C@@H]2C)cc1`, the cytotoxicity call in test [1] and in test [2] was “inactive” throughout. In addition, the growth inhibition call in test [3] was “inactive”.

As to `CN(C)Cc1cn(CC[C@@H]2CC[C@@H](NC(=O)Cc3cccnc3)[C@@H](CO)O2)nn1`, the cytotoxicity call in test [1] and in test [2] was “inactive” throughout. Also, in test [3], the growth inhibition call is “inactive”.

With `O=S1(=O)NCC2(COC2)O1`, the cytotoxicity call in test [1] and in test [2] was “inactive” in each case. Besides, in test [3], the growth inhibition call was “inactive”.

`Nc1ncnc2c1ncn2[C@H]1O[C@@H](CO)[C@H](O)[C@@H]1S`: the cytotoxicity call in test [1] and in test [2] was “inactive” throughout. In test [3], the growth inhibition call is “inactive”.

Turning to `C[C@@H]1CN([C@H](C)CO)C(=O)Cc2cc(NC(=O)Cn3cnnn3)ccc2O[C@@H]1CN(C)C(=O)Nc1ccc2c(c1)OCO2`, the cytotoxicity call in test [1] and in test [2] was “inactive” in each case. The growth inhibition call in test [3] was “inactive”.

For `CN(C)CC(=O)N[C@H]1CC[C@H](CCNC(=O)C2CC2)O[C@H]1CO`, the cytotoxicity call in test [1] and in test [2] was “inactive” throughout. Also, in test [3], the growth inhibition call was “inactive”.

Take `Cc1ccc(S(=O)(=O)Nc2ccc3c(c2)C(=O)N([C@H](C)CO)C[C@H](C)[C@H](CN(C)Cc2ccc(Cl)c(Cl)c2)OCCCC[C@@H](C)O3)cc1`: the cytotoxicity call in test [1] was “inactive”. In addition, the cytotoxicity call in test [2] is “active”. Besides, the growth inhibition call in test [3] was “inactive”.

As for `C=CC[C@H](CC(=O)N(CCO)Cc1ccccc1)C(=O)NCCOC(=O)[C@H](CC=C)CC(=O)OC(C)(C)C`, the cytotoxicity call in test [1] and in test [2] was “inactive” in each case. In addition, the growth inhibition call in test [3] is “inactive”.

On to `Cc1ccc(S(=O)(=O)Nc2ccc3c(c2)CC(=O)N([C@H](C)CO)C[C@H](C)[C@@H](CN(C)S(=O)(=O)c2ccc(F)cc2)O3)cc1`, for which the cytotoxicity call in test [1] and in test [2] was “inactive” throughout. Moreover, in test [3], the growth inhibition call is “inactive”.

As to `COc1ccc2c3c(n(c2c1)C)[C@H](CO)N(C[C@]13CN(C1)C(=O)c1ccccn1)S(=O)(=O)c1ccc(cc1)C`, the cytotoxicity call in test [1] and in test [2] was “inactive” in each case. Besides, the growth inhibition call in test [3] is “inactive”.

With `C/C=C(/C)C(=O)O[C@@H]1[C@H](OC(C)=O)[C@]2(CO)[C@H](O)C[C@]3(C)C(=CC[C@H]4[C@@]5(C)CC[C@H](O[C@@H]6O[C@H](C(=O)O)[C@@H](O[C@@H]7O[C@H](CO)[C@@H](O)[C@H](O)[C@H]7O)[C@H](O)[C@H]6O[C@@H]6O[C@H](CO)[C@@H](O)[C@H](O)[C@H]6O)[C@](C)(CO)[C@@H]5CC[C@]43C)[C@@H]2CC1(C)C`, the cytotoxicity call in test [1] and in test [2] was “inactive” each time. In test [3], the growth inhibition call is “inactive”.
